# In PubChem BioAssay AID1468 (National Center for Advancing Translational Sciences (NCATS), 2008):
# Where “and” joins values, the source holds several entries; their conditions need not be identical. Equal entries are not always repeated. The campaign covered roughly 280,000 compounds. About 1,100 (0.39%) were called active. The shares of active, inactive and inconclusive entries below differ from those in the screen. Calls follow the shape of the dose curve; as a rule, active = well fitted inhibition curve with a large enough effect; inconclusive = small, poorly fitted or top-dose-only effect, or effect the other way; inactive = flat fitted curve, though single readings scatter. Potencies of inconclusive entries are left out as doubtful fits.
# Biological target: Microtubule-associated protein tau (Homo sapiens) (UniProt P10636)
# Assay: qHTS for Inhibitors of Tau Fibril Formation, Fluorescence Polarization; also: nearly all actives have a fitted effect of over 55% in size
# Settings: K18 P301L tau heparin fibrillization, Alexa594 FP, 6 h; series mostly up to 57.7 µM; activity, negative = inhibition: at the top concentration
# Method in brief: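 Human tau K18 […] P301L fragment, 15 uM unlabeled plus 0.24 uM Alexa 594-labeled tau (final), with compound and 20 uM heparin in 100 mM sodium acetate pH 7; 6 hr at 37 C, then Alexa 594 FP read.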
# % is scaled to controls: 0 for no effect and ±100 for the full control effect; potency is read from the fitted curve at half-maximal effect; tags tell the direction and shape of the fitted curve.
# Chain of UniProt P10636 (P10636 whole entry, looked up): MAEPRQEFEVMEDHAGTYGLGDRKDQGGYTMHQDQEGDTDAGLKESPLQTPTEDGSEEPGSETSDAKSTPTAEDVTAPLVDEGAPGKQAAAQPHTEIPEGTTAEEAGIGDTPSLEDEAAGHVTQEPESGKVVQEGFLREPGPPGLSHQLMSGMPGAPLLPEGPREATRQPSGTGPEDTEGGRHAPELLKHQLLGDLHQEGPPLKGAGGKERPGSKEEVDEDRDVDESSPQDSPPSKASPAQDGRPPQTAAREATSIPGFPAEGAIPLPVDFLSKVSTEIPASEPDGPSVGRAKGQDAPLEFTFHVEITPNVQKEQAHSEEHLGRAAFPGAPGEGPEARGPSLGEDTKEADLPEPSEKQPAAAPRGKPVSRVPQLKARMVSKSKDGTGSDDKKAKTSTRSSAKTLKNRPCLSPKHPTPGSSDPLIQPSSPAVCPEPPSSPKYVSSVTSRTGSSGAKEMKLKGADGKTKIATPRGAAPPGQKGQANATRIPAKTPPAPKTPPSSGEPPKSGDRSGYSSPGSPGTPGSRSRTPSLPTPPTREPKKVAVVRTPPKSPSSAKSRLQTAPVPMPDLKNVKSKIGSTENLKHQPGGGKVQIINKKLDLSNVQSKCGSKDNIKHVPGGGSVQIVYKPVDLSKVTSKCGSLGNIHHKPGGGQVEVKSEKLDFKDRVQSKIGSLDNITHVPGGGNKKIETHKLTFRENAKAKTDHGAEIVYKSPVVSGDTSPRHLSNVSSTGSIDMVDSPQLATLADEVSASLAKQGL
Compound,Potency,"activity, negative = inhibition"
O=C(NNC1=C(C(=O)C(F)(F)F)CCC1)c1ccc(Cl)cc1,"inconclusive [activator, single point]",
COCc1[nH]nc2c1C(c1ccc(OC)c(OC)c1)C(C#N)=C(N)O2 (centres undefined),,inactive: -3.79%
O=C(NCC1COc2ccccc2O1)c1ccc(NC(=O)C(c2ccccc2)c2ccccc2)cc1 (centres undefined),"inconclusive [inhibitor, partial curve, poor fit]",
COc1ccccc1NC(=O)Nc1ccc(-n2ccc(C(F)(F)F)n2)cc1,"inconclusive [inhibitor, single point]",
Cc1ccc(NC(=O)/C=C/c2ccc3c(c2)OCO3)cc1S(=O)(=O)N1CCOCC1,"inconclusive [inhibitor, partial curve]",
Cc1sc2nc(SCC(=O)Nc3ccc(S(=O)(=O)NCCCC(=O)O)cc3)[nH]c(=O)c2c1C,"inconclusive [inhibitor, partial curve]",
CCCC1C2CN(C(C)C)CC=C2C(C#N)=C(N)C1(C#N)C#N (centres undefined),"inconclusive [inhibitor, partial curve]",
CCn1c(N2CCC(Cc3ccccc3)CC2)nc2c1c(=O)[nH]c(=O)n2C,"inconclusive [activator, single point]",
O=C(CNc1c(Br)cc(Br)cc1Br)NN=C1CCCCC1,"inconclusive [inhibitor, single point]",
CCCn1ncc(OC)c(Cl)c1=O,,inactive: -1.77%
COc1ccccc1NC(=O)c1sc2cccc(Cl)c2c1Cl,,inactive: -0.578%
CC1=CC(=O)c2c(O)ccc(O)c2C1=O,"inconclusive [inhibitor, single point]",
O=C1/C(=C/c2ccncc2)SC(=S)N1Nc1ccccc1,"inconclusive [inhibitor, partial curve]",
COc1cc(C(=O)NCCc2ccc(F)cc2)c([N+](=O)[O-])cc1OC,,inactive: 0.179%
O=C(NC1CCCCC1)Sc1ccc(Cl)cc1,"inconclusive [inhibitor, single point]",
CC(C)N=C1SCC(C)(/C=N/O)S1 (centres undefined),"inconclusive [inhibitor, partial curve]",
COc1cc(C(=O)Nc2cccc(OCc3cc(=O)n4c(C)csc4n3)c2)cc(OC)c1OC,"inconclusive [inhibitor, full curve, poor fit]",
CCOc1ccc(-c2nnc3ccc(SCC(=O)Nc4nc5ccccc5s4)nn23)cc1,"inconclusive [inhibitor, partial curve]",
Cc1ccc(S(=O)(=O)N[C@H]2COC(=O)[C@@H](Cc3ccccc3)NC(=O)[C@@H](C)COC(=O)C/C=C\[C@@H]2C)cc1,,inactive: -5.39% [at 11.6 µM] and inactive: -2.83% [at 11.6 µM]
